About 5,000 (1.2%) of roughly 410,000 compounds were called active. The shares of active, inactive and inconclusive entries below differ from those in the screen. Calls come from the whole dose curve; as a rule, active = well fitted inhibition curve with a large enough effect; inconclusive = small, poorly fitted or top-dose-only effect; inactive = no such curve, though single readings can be large or run the other way. Potencies beside an inconclusive call are fits to weak or partial responses and may not hold up.
Experiment: qHTS for Inhibitors of TGF-b; note: nearly all actives have a fitted effect of over 65% in size
Details: HepG2 CAGA-GFP TGF-b/SMAD3 reporter, GFP fluorescence, 18 h, TGF-beta stimulated, 500 pg/mL final; series mostly up to 46.1 µM; activity, negative = inhibition: at the top concentration
Procedure, shortened: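 TGF-beta reporter screen: HEPG2 CAGA-GFP, 1% FBS, 500 pg/mL TGF-beta final, 18 h; per-cell GFP summed per well; curves fitted and categorized by class.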
% is set by controls: 0 for no effect and ±100 for the full control effect; potency is the fitted concentration of half-maximal effect; tags give direction and shape of the fitted curve.

| SMILES | activity, negative = inhibition | Potency |
| --- | --- | --- |
| O=C(CN1C(=O)c2cccnc2Oc2ccc(Cl)cc21)NC1CCCC1 | inactive: 2.67% |  |
| COc1ccc(NC(=O)c2cc3c(CO)cnc(C)c3oc2=Nc2cccc(C)c2)c(OC)c1 | inactive: -0.114% |  |
| CCCCn1c(NS(=O)(=O)c2ccc(C)cc2)c(S(=O)(=O)c2ccccc2)c2nc3ccccc3nc21 |  | inconclusive: 3.16 µM [inhibitor, full curve, poor fit] |
| O=S(=O)(NCc1ccccc1)c1ccc(NC(=S)NCc2ccco2)cc1 |  | inconclusive: 8.91 µM [inhibitor, partial curve, poor fit] |
| O=[N+]([O-])c1cc(O)c2ncccc2c1 |  | active: 5.01 µM |
| CC(=O)Nc1ccc(/C=N/Nc2nc3ccccc3[nH]2)cc1 |  | inconclusive: 11.2 µM [inhibitor, partial curve, poor fit] |
| CCC(C)[C@H](NC(=O)N1CCn2c1nc1ccccc12)C(=O)NCCc1ccccc1 (stereo partly drawn) |  | inconclusive: 35.5 µM [inhibitor, single point] |
| C[C@H](CO)N1C[C@H](C)[C@H](CN(C)Cc2ccccc2)Oc2c(NC(=O)Nc3ccc(F)cc3)cccc2C1=O |  | inconclusive: 35.5 µM [inhibitor, single point] |
| O=C(CN1CCCCC1)Nc1nc(-c2ccc(Cl)cc2)cs1 | inactive: 0% |  |
| O=S(=O)(Cc1ccccc1)C(CCCc1ccccc1)S(=O)(=O)Cc1ccccc1 | inactive: 3.92% |  |
| O=C(Nc1ccc([N+](=O)[O-])cc1)Nc1ccon1 |  | active: 10 µM |
| COc1ccccc1/C=C/C=N\N1CCN(Cc2ccccc2Cl)CC1 |  | inconclusive: 8.91 µM [inhibitor, partial curve, poor fit] |
| O=C(CSc1nc2ccccc2[nH]1)Nc1ccc(F)c(F)c1 |  | inconclusive: 22.4 µM [inhibitor, single point] |
| CCCCNC(=S)N/N=C/C1=CCC2CC1C2(C)C (stereo not drawn) |  | active: 11.2 µM |
| Cc1cccc(OCc2nc3ccccc3c(=O)n2N)c1 |  | inconclusive: 31.6 µM [inhibitor, single point] |
| COc1ccccc1-c1oc2ccccc2c1C#CC1(O)CCCCC1 |  | inconclusive: 11.2 µM [inhibitor, partial curve, poor fit] |
| Cc1ccc([N+](=O)[O-])cc1NC(=O)Nc1cccc(F)c1 |  | inconclusive: 4.47 µM [inhibitor, partial curve, poor fit] |
| O=C(C1CC(=O)N(c2ccc3c(c2)OCCO3)C1)N1CCN(S(=O)(=O)c2cccc(F)c2)CC1 (stereo not drawn) |  | inconclusive: 11.2 µM [inhibitor, partial curve, poor fit] |
| CC1(C(=O)Nc2ccc(Cl)c(Cl)c2)CCN1C(=O)CC1CCCC1 (stereo not drawn) | inactive: -17.6% |  |
| O=C(NCCc1ccc(Cl)cc1)c1ccc(CS(=O)Cc2cccc(Cl)c2)o1 (stereo not drawn) |  | active: 8.91 µM |
| CN(c1ccccc1)S(=O)(=O)c1ccc(Cl)c(C(=O)NCC(c2ccco2)N2CCCC2)c1 (stereo not drawn) |  | inconclusive: 20 µM [inhibitor, single point] |
| Cc1cccc(Nc2cc(=O)[nH]c(=O)[nH]2)c1 |  | inconclusive: 22.4 µM [inhibitor, single point] |

| SMILES | activity, negative = inhibition | Potency |
| --- | --- | --- |
| CN(C)c1c2ccccc2nc2c(F)c(F)c(F)c(F)c12 |  | inconclusive: 35.5 µM [inhibitor, single point] |
| O=C(Nc1cccc(-c2cc3ccccc3oc2=O)c1)c1ccc(Br)o1 |  | inconclusive: 22.4 µM [inhibitor, single point] |
| CN(Cc1cccnc1)Cc1cn(Cc2ccccc2)nc1-c1ccc2c(c1)OCO2 | inactive: -8.82% |  |
| S=c1[nH]nc(-c2ccncc2)n1/N=C/c1cn(-c2ccccc2)nc1-c1ccccc1 | inactive: -0.646% |  |
| Cc1ccc(-c2ccc(CN3C(C)C(=O)N(Cc4cn(Cc5ccco5)nn4)CCS3(=O)=O)cc2)cc1 (stereo not drawn) |  | inconclusive: 35.5 µM [inhibitor, single point] |
| CC(C)CSCC1OC(n2cnc3c(N)nccc32)C(O)C1O (stereo not drawn) | inactive: -29.5% |  |
| CC1Sc2ccc(S(=O)(=O)N3CCC(C(=O)N(C)Cc4ccco4)CC3)cc2NC1=O (stereo not drawn) |  | inconclusive: 35.5 µM [inhibitor, partial curve, poor fit] |
| O=C1/C(=C\c2ccco2)CCC/C1=C\c1ccco1 | inactive: -19.6% |  |
| COc1ccc(OC)c(CN2CCCC(C(=O)c3ccccc3SC)C2)c1 (stereo not drawn) |  | inconclusive: 2 µM [inhibitor, full curve] |
| CN(C)C(CNC(=O)C1CC(=O)N(Cc2ccccc2)C1)c1ccccc1 (stereo not drawn) |  | inconclusive: 28.2 µM [inhibitor, single point] |
| O=C(Nc1cc([N+](=O)[O-])ccc1Cl)C(Sc1ccccc1)c1ccccc1 (stereo not drawn) | inactive: -21.2% |  |
| CCOC(=O)C(NC(=O)c1ccccc1)=C1CCCCC1 |  | inconclusive: 4.47 µM [inhibitor, full curve, poor fit] |
| COc1ccc(C2C3C=CCC(c4ccccc4)C3C(=O)N2Cc2ccccc2)cc1Cl (stereo not drawn) |  | inconclusive: 22.4 µM [inhibitor, single point] |
| O=C1/C(=C/c2ccc3c(c2)OCO3)CCC/C1=C\c1ccc2c(c1)OCO2 |  | inconclusive: 20 µM [inhibitor, partial curve, poor fit] |
| CN(c1ccc(Cl)cc1)S(=O)(=O)c1nnc(NC(=O)C2CCCCC2)s1 |  | inconclusive: 31.6 µM [inhibitor, single point] |
| C=CCn1c(=O)/c(=C/c2ccsc2)s/c1=C(\C#N)C(=O)NCCN1CCOCC1 | inactive: 5.62% |  |
| COc1ccc(NC(=O)/C(C#N)=C/C=C/c2ccco2)cc1 |  | inconclusive: 17.8 µM [inhibitor, single point] |
| CC1CCN(c2ccccc2NC(=S)NC(=O)c2cccs2)CC1 |  | inconclusive: 14.1 µM [inhibitor, single point] |
| CCCCNC(=O)c1ccccc1C(=O)NC1(C(=O)NCCCC)CCCC1 | inactive: 0.707% |  |
| Cc1ccc(NC(=O)C2CCN(S(=O)(=O)c3c(C)noc3/C=C/c3cccs3)CC2)cc1F |  | inconclusive: 2.82 µM [inhibitor, full curve] |
| Cc1cs/c(=N\N=C\c2ccccc2)n1Cc1ccco1 |  | inconclusive: 12.6 µM [inhibitor, partial curve, poor fit] |

— PubChem BioAssay AID588855 (National Center for Advancing Translational Sciences (NCATS), 2011)
